We go through 84 compounds from ChEMBL document CHEMBL4888484, “Replenishing the malaria drug discovery pipeline: Screening and hit evaluation of the MMV Hit Generation Library 1 (HGL1) against asexual blood stage Plasmodium falciparum ,using a nano luciferase reporter read-out” (2022).

In all, about 150,000 compounds went through this assay and about 540 (0.36%) showed an effect of 50% or more. This is one part of the list.

The test has as its system Plasmodium falciparum. The test is described as follows: Primary screen in NF54 nanoGlo assay, in single point, at 2uM, 72h; a lower Z score goes with more inhibition. It counts as functional, Erythrocyte. As to conditions: timepoint 72 hour.
As usually defined, the % Inhibition is the relative decrease from the control value, in per cent. On to `O=C1CC[C@H](NCc2ccc(OC(F)F)c(F)c2)C2(CCC2)N1`, for which the “% Inhibition” value was -8% and the Z score amounted to 0.68.
Turning to `CNC(=O)C[C@H](C)NCc1coc2ccccc12`, the “% Inhibition” value is recorded as -6% and the Z score amounted to 0.7.
The like results for `Cc1nc(C2CC2)oc1C(=O)N1CCCC1CC(O)c1cccs1` (stereo not drawn) were, in that order, -5% and 0.72.
For the compound `CO[C@@H](c1ccccc1)c1nc(-c2c(C)ncc3c2CCNC3)no1`, the “% Inhibition” value was -7% and the Z score is listed as 0.97.
Take `N#Cc1ccc(C(=O)NCc2ccc(-c3nc(C4CC4)no3)s2)c(F)c1`: the “% Inhibition” value is on record as -4% and the Z score amounted to 0.75.
Consider `Cn1cccc1[C@H](CNC(=O)c1ccc2c(c1)OCO2)N1CCOCC1`, for which the “% Inhibition” value is listed as -7% and the Z score is 1.21.
On to `Cc1sc(NC(=O)COc2ccc3ccccc3c2)nc1-c1ccccc1`, for which the “% Inhibition” value is recorded as -10% and the Z score was 1.66.
Consider `N#Cc1nccnc1O[C@H]1CCCN(C(=O)Nc2cccs2)C1`, for which the “% Inhibition” value is recorded as -15% and the Z score amounted to 2.51.
For `O=C(NC(c1ccccc1)c1ccccc1)c1cc(COc2c(F)cccc2F)on1`, the “% Inhibition” value was -1% and the Z score was found to be 0.13.
As to `O=C(Nc1nc(C(=O)N2CCCCC2)cs1)c1ccc(Cl)c(Cl)c1`, the “% Inhibition” value is given as -12% and the Z score is 1.69.
As for `CN(Cc1cscn1)C(=O)[C@H]1CC12CCN(CC(c1ccccc1)c1ccccc1)CC2`, the “% Inhibition” value is given as -1% and the Z score is 0.25.
Take `CC(C)c1nc(C2(NCc3nnc(C(C)C)o3)CCCC2)no1`: the “% Inhibition” value was -7% and the Z score was found to be 0.87.
The like results for `Cc1ccc2nc(CN3Cc4ncccc4C3=O)cn2c1` were, in that order, -12% and 1.71.
Regarding `C=CCN(C)C(=O)c1cc(F)ccc1F`, the “% Inhibition” value was -3% and the Z score turned out to be 0.27.
On the same counts, the results for `COCCc1noc(C[C@H]2CCOC3(CCN(C(=O)Cc4cccc(OC)c4)CC3)C2)n1` are 0% and -0.01.
In the case of `CN(C)S(=O)(=O)N(CC#N)Cc1ccc(C(F)F)cc1`, the “% Inhibition” value is listed as -6% and the Z score came to 1.1.
Consider `COc1cccc(CN2C(=O)c3cc4oc(C)cc4n3C[C@@]2(C)C(=O)NC2CCCCCCC2)c1`, for which the “% Inhibition” value is recorded as -9% and the Z score is 1.71.
As to `C#CCN(CC#N)C(=O)[C@H]1CCCN(C(=O)NC2CCCC2)C1`, the “% Inhibition” value was -19% and the Z score amounted to 1.93.
On the same counts, the results for `Cc1nc(C)c(S(=O)(=O)NCc2nc3c([nH]2)CCCC3)s1` are -6% and 0.77.
In the case of `COCCNCCOc1ccc(Br)cc1Cl`, the “% Inhibition” value was -8% and the Z score was determined as 1.08.
On the same counts, the results for `CCCS(=O)(=O)NC(=O)CCC1CCCC1` are -11% and 1.66.
The like results for `NC(=O)C1CCN(C(=O)c2ccc3c(c2)CCC3)CC1` were, in that order, -14% and 1.64.
For the compound `COC(=O)CN(C(C)C)S(=O)(=O)c1cc(Cl)cc(Cl)c1`, the “% Inhibition” value stood at 33% and the Z score is reported as -1.13.
With `CC(C)CN(CC(=O)N(CCc1c[nH]c2ccccc12)Cc1ccc(Cl)cc1)Cc1ccc(Cl)cc1`, the “% Inhibition” value is listed as -8% and the Z score was determined as 1.43.
Consider `O=C(NCc1cccnc1-c1ccco1)c1ccc(S(=O)(=O)N2CCOCC2)cc1`, for which the “% Inhibition” value is reported as -4% and the Z score was 0.72.
Consider `CN1CCCC[C@@H]1CCn1ncc(N2CCc3ccccc3C2)cc1=O`, for which the “% Inhibition” value is reported as -32% and the Z score amounted to 2.82.
The like results for `CC(C)C[C@@H]1N=C(O)N(CCCn2ccnc2)C1=O` were, in that order, -18% and 1.59.
The like results for `O=C1NC2C(NC(=O)N2C2CCCCC2)N1C1CCCCC1` (stereo not drawn) were, in that order, 5% and -0.61.
The like results for `Cc1c(S(=O)(=O)N2CCC[C@H](C(=O)N3CCCC3)C2)cnn1C` were, in that order, 0% and -0.03.
On to `COc1cc(C(=O)Nc2ccc(CN(C)C)c(Cl)c2)sn1`, for which the “% Inhibition” value amounted to 3% and the Z score is -0.58.
For the compound `O=C(NCCNc1cc(Nc2ccccn2)ncn1)Nc1ccccc1`, the “% Inhibition” value is recorded as -3% and the Z score is 0.62.
On the same counts, the results for `Cc1ccc(C)c(-n2cnc(=O)n2Cc2nnc3n2CCOC3)c1` are -12% and 2.31.
Turning to `O=C(O)CN(C(=O)C1CC1c1cc(Cl)cc(Cl)c1)C1CCOCC1` (stereo not drawn), the “% Inhibition” value was 2% and the Z score is reported as -0.21.
`Cc1cc(S(=O)(=O)Nc2ccccc2C(=O)Nc2ccc3c(c2)OCCO3)c(C)s1`: the “% Inhibition” value was -10% and the Z score is 0.87.
On the same counts, the results for `O=C(c1ccon1)N1CCC(c2ncc(C(F)(F)F)[nH]2)CC1` are -6% and 0.75.
`Cc1ccc2[nH]c(C(=O)N3CCC4(CC3)CNC(=O)C4)nc2c1`: the “% Inhibition” value was -4% and the Z score is recorded as 0.63.
As to `C[C@H]1CCC(=O)N1c1ccc(NC(=O)c2cc(=O)nc3sccn23)cc1`, the “% Inhibition” value is on record as -11% and the Z score is 2.06.
On to `CC(=O)OCC1OC(n2ccc(=O)[nH]c2=O)CC1OC(C)=O` (stereo not drawn), for which the “% Inhibition” value is on record as -5% and the Z score amounted to 0.59.
As to `CCC(CC)C(=O)Nc1ccc(Br)c(C)c1`, the “% Inhibition” value was 0% and the Z score is given as 0.06.
Take `O=C(NC1CCCCC1)c1cc2c(s1)CCN(C(=O)c1ccc(F)cc1)C2`: the “% Inhibition” value is given as -12% and the Z score was determined as 1.98.
Turning to `Cc1nc(C(=O)N2CCN(c3cc(C(F)(F)F)ncn3)CC2)cs1`, the “% Inhibition” value is listed as -23% and the Z score worked out at 2.89.
The like results for `Cc1cc(O[C@H]2CCN(C(=O)C3c4ccccc4Oc4ccccc43)C2)nc(C)n1` were, in that order, 7% and -1.06.
On to `COc1ccc(CC(=O)N[C@H](C)c2onc(-c3ccc(F)cc3)c2C(=O)O)cc1`, for which the “% Inhibition” value stood at 14% and the Z score is recorded as -1.68.
Take `C[C@H](Oc1ccc(Br)cc1F)c1ncc(Br)cn1`: the “% Inhibition” value was -21% and the Z score came out at 4.04.
Take `CCc1nc(CN(C)CC(=O)N2CCCC2)cs1`: the “% Inhibition” value is on record as -5% and the Z score came to 0.94.
For `COc1ccc2c(c1OC)O[C@@](C)(CCC(=O)N1CCCC1)CC2=O`, the “% Inhibition” value is listed as 1% and the Z score is -0.11.
On the same counts, the results for `Cc1c(C#N)c(NC(=O)CN2C[C@@H](C(N)=O)Oc3ccccc32)n(Cc2ccco2)c1C` are -12% and 1.33.
Take `Cc1noc(C(C)NC(=O)NC2CCN(C)C2c2ccccc2)n1` (stereo not drawn): the “% Inhibition” value turned out to be 3% and the Z score is given as -0.5.
On to `O[C@@H](CNCc1c[nH]nc1-c1cccs1)c1ccc(F)cc1`, for which the “% Inhibition” value is listed as -7% and the Z score is reported as 1.47.
As for `Cc1ccc[n+](Cc2ccc3ccccc3n2)c1`, the “% Inhibition” value turned out to be 59% and the Z score was -7.89.
On to `O=C(N[C@H]1CCCOCC1)c1ccc2c(c1)OCO2`, for which the “% Inhibition” value is listed as -5% and the Z score is on record as 0.95.
Turning to `COc1ccc(C(C)NC2CCc3nc(C)cn3C2)cc1C` (stereo not drawn), the “% Inhibition” value is on record as -2% and the Z score is 0.26.
On the same counts, the results for `CN(C)CCN(Cc1ccccc1)C(=O)[C@@H]1CCCCc2nnc(-c3ccccc3)n21` are -6% and 0.87.
On the same counts, the results for `Cc1cc([C@@H](O)CCNC(=O)C(=O)NCCc2ccccc2)c(C)o1` are -15% and 1.91.
In the case of `CC(C)NC(=O)N(C)CCc1cnccn1`, the “% Inhibition” value is recorded as 2% and the Z score was -0.33.
The like results for `OCCOc1ccccc1CN1CCC[C@@](CO)(CCCc2ccccc2)C1` were, in that order, -8% and 0.99.
Regarding `CCc1cccnc1-c1noc(C(C)(C)C#N)n1`, the “% Inhibition” value is 6% and the Z score was -1.13.
Consider `COc1nscc1CN(C)c1cc(C)nc2ncnn12`, for which the “% Inhibition” value is recorded as -1% and the Z score was determined as 0.23.
On to `CCC(C)C(C)(O)CNC(=O)c1ccc(O)c(Cl)c1` (stereo not drawn), for which the “% Inhibition” value was -6% and the Z score is 0.93.
`CCOC(=O)c1ncn(CC(=O)OC)c1N`: the “% Inhibition” value is given as -5% and the Z score worked out at 0.63.
Turning to `COc1ccc(C(=O)NC2CC2)c(OC2CCN(CCCc3ccccc3)CC2)c1`, the “% Inhibition” value was -21% and the Z score turned out to be 1.97.
The like results for `Cc1cccnc1C[C@H](C)NC(=O)c1cnn[nH]1` were, in that order, 4% and -0.36.
For `CCOC(=O)c1cc(-c2ccccc2)nnc1Oc1ccccc1`, the “% Inhibition” value worked out at 32% and the Z score was -1.23.
On the same counts, the results for `O=C(NCc1ccccn1)c1cn2c3c(cccc3c1=O)CCC2` are -13% and 1.83.
On the same counts, the results for `CCn1cc([C@H](C)NC(=O)Cn2ncn(C)c2=O)cn1` are -3% and 0.65.
Turning to `O=C1C[C@H](c2ccccc2OCc2ccccc2F)c2sccc2N1`, the “% Inhibition” value was 13% and the Z score was -1.72.
Take `O=C1[C@@H]2C[C@@H](CN2C(=O)c2cnccn2)Oc2ccccc2N1CC1CC1`: the “% Inhibition” value is -11% and the Z score is reported as 1.61.
The like results for `COc1ccc(C(=O)N(C(=O)c2ccc(OC)cc2)c2c3c(nc4ccccc24)CCCC3)cc1` were, in that order, 69% and -5.66.
For `CC1(C)c2[nH]c3ccccc3c2C[C@H]2C(=O)N(Cc3ccc(F)cc3)CC(=O)N21`, the “% Inhibition” value is given as -3% and the Z score is on record as 0.39.
For `O=C(Cc1c[nH]c2ccccc12)Nc1cccc(-c2noc(C3CCCC3)n2)c1`, the “% Inhibition” value is reported as -14% and the Z score worked out at 2.47.
Turning to `CON(C)C(=O)C1CN(C(=O)c2cccs2)C1`, the “% Inhibition” value is -7% and the Z score came out at 1.12.
For `CC1CN(C(=O)C(C)(C)c2cccc(C#N)c2)CC1N1CCOCC1` (stereo not drawn), the “% Inhibition” value was -12% and the Z score is given as 1.56.
Regarding `Clc1ccc(CN2CCO[C@H](c3cccnc3)C2)o1`, the “% Inhibition” value is -2% and the Z score worked out at 0.43.
On to `NC(=NOCC(=O)NCc1ccc2c(c1)OCO2)c1ccc(Cl)cc1`, for which the “% Inhibition” value was -5% and the Z score amounted to 0.92.
As to `CN(C)C[C@]1(O)CCCN(Cc2ccc3[nH]ccc3c2)C1`, the “% Inhibition” value came out at 2% and the Z score was -0.5.
Take `Cc1ccccc1NC(=O)C[C@H]1COc2ccccc2NC1=O`: the “% Inhibition” value is -16% and the Z score is reported as 1.85.
Consider `CCCN1C(=O)c2c(C(=O)Nc3cc(F)ccc3F)ncn2C[C@@]1(C)C(=O)NCc1ccc(C)cc1`, for which the “% Inhibition” value was -15% and the Z score is given as 2.81.
The like results for `CC(C)n1cc(CN2CCN(C(=O)N(C)C)[C@H]3CS(=O)(=O)C[C@H]32)cn1` were, in that order, -8% and 1.35.
For `CN(C)CCCc1nc(-c2ccccc2)nn1-c1ccc2c(c1)OCO2`, the “% Inhibition” value is recorded as -7% and the Z score was 1.06.
Regarding `Cc1sc2nc(CN3CCC(C)CC3)nc(N3CC(O)CC3C(N)=O)c2c1C` (stereo not drawn), the “% Inhibition” value is given as -6% and the Z score is reported as 0.7.
As for `CCS(=O)(=O)N1CC(N2CCN(C(=O)OC(C)(C)C)CC2)C1`, the “% Inhibition” value is listed as -3% and the Z score was 0.33.
In the case of `Cc1c(C(=O)N2CC3(CCC3)c3c(F)cccc32)nnn1-c1ccn(C)n1`, the “% Inhibition” value was 11% and the Z score is -1.43.
On to `CCn1c(-c2cccnc2)nc2cc(NC(=O)COC)cc(C(=O)N[C@@H](C)CCCC(C)(C)O)c21`, for which the “% Inhibition” value was -3% and the Z score was 0.5.
In the case of `CC(C)OCC(=O)N1CCN(C(=O)COC(C)C)[C@H](C#N)C1`, the “% Inhibition” value was found to be 3% and the Z score is -0.63.
